In all, about 2,900 compounds were measured (“NF-kB SEAP reporter activity, fold change vs agonist alone”: median about 0.99, highest 2% from about 2.6 on). This is one part of the list.
What was measured:
[1] = test system: RAW-Dual; test: NF-kB SEAP reporter activity, fold change vs agonist alone; cytotoxicity flag (confluency mask): not cytotoxic; higher = enhanced NF-kB activity
Method in brief: (§1)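 Cytotoxic wells were those whose IncuCyte confluency was below 70% of agonist controls in both mask sets. The cells were RAW-Dual macrophages at 50,000 cells/well in DMEM on 384-well plates, dosed with 50 nL of library stock by pin tool, stimulated with a PRR agonist 1 h later, and kept at 37 °C, 5% CO2 for 20 hours. IRF and NF-κB reporter activity, as fold change over agonist-alone wells, came from supernatant read by QuantiLuc luminescence and QuantiBlue absorbance, respectively.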

[2] = test system: RAW-Dual; test: NF-kB SEAP reporter activity, fold change vs agonist alone; higher = enhanced NF-kB activity
Method in brief: as §1

[3] = test system: RAW-Dual; test: NF-kB SEAP reporter activity, fold change vs agonist alone; cytotoxicity flag (confluency mask): cytotoxic (confluency <70% of control); higher = enhanced NF-kB activity
Method in brief: as §1

[4] = agonist: ODN 1826 (TLR9) 0.5 ug/mL
[5] = agonist: Pam2CSK4 (TLR2/6) 0.1 ug/mL
[6] = agonist: Pam3CSK4 (TLR2/1) 0.1 ug/mL
[7] = library stock concentration (final ~1000-fold dilution): 10 mM, cytotoxicity flag (confluency mask): not cytotoxic, agonist: Imiquimod (TLR7) […]
[8] = library stock concentration (final ~1000-fold dilution): 10 mM, cytotoxicity flag (confluency mask): not cytotoxic, agonist: MPLA (TLR4) […]
[9] = library stock concentration (final ~1000-fold dilution): 10 mM, cytotoxicity flag (confluency mask): cytotoxic (confluency <70% of control), agonist: MPLA (TLR4) […]
[10] = library stock concentration (final ~1000-fold dilution): 10 mM, cytotoxicity flag (confluency mask): cytotoxic (confluency <70% of control), agonist: Imiquimod (TLR7) […]

## COc1ccc(CN(CCN(C)C)c2ncccn2)cc1 (library stock concentration (final ~1000-fold dilution): 10 mM)
[1]; agonist: LPS (TLR4) 0.1 ug/mL
  NF-kB SEAP reporter activity: 1.16
[1]; [4]
  NF-kB SEAP reporter activity: 0.886
[1]; [5]
  NF-kB SEAP reporter activity: 0.965
[1]; [6]
  NF-kB SEAP reporter activity: 0.747

## COc1ccc(CN(CCN(C)C)c2ncccn2)cc1
[2]; [7]
  NF-kB SEAP reporter activity: 1.05
[2]; [8]
  NF-kB SEAP reporter activity: 1.13

## Cc1ccc(Sc2ccccc2N2CCNCC2)c(C)c1 (library stock concentration (final ~1000-fold dilution): 10 mM)
[3]; agonist: LPS (TLR4) 0.1 ug/mL
  NF-kB SEAP reporter activity: 0.339
[3]; [4]
  NF-kB SEAP reporter activity: 0.37
[3]; [5]
  NF-kB SEAP reporter activity: 0.283
[3]; [6]
  NF-kB SEAP reporter activity: 0.36

## Cc1ccc(Sc2ccccc2N2CCNCC2)c(C)c1
[2]; [9]
  NF-kB SEAP reporter activity: 1.38

## CN1CCC(CNc2ccc3ncc(-c4cccc(OC(F)(F)F)c4)n3n2)CC1
[2]; [7]
  NF-kB SEAP reporter activity: 0.949
[2]; [8]
  NF-kB SEAP reporter activity: 0.925

## CN1CCC(CNc2ccc3ncc(-c4cccc(OC(F)(F)F)c4)n3n2)CC1 (library stock concentration (final ~1000-fold dilution): 10 mM)
[1]; agonist: LPS (TLR4) 0.1 ug/mL
  NF-kB SEAP reporter activity: 1.34
[1]; [4]
  NF-kB SEAP reporter activity: 0.983
[1]; [5]
  NF-kB SEAP reporter activity: 0.674
[1]; [6]
  NF-kB SEAP reporter activity: 0.943

## CS(=O)(=O)O.Cn1cc(C2=C(c3cn(CCCSC(=N)N)c4ccccc34)C(=O)NC2=O)c2ccccc21 (library stock concentration (final ~1000-fold dilution): 10 mM)
[3]; agonist: LPS (TLR4) 0.1 ug/mL
  NF-kB SEAP reporter activity: 0.173
[3]; [4]
  NF-kB SEAP reporter activity: 0.185
[3]; [5]
  NF-kB SEAP reporter activity: 0.0599
[3]; [6]
  NF-kB SEAP reporter activity: 0.138

## CS(=O)(=O)O.Cn1cc(C2=C(c3cn(CCCSC(=N)N)c4ccccc34)C(=O)NC2=O)c2ccccc21
[2]; [10]
  NF-kB SEAP reporter activity: 0.13
[2]; [9]
  NF-kB SEAP reporter activity: 0.222

## COc1cccc2c1C(=O)c1c(O)c3c(c(O)c1C2=O)CC(O)(C(=O)CO)CC3OC1CC(N)C(OC2CCCCO2)C(C)O1 (stereo unspecified) (library stock concentration (final ~1000-fold dilution): 10 mM)
[1]; agonist: LPS (TLR4) 0.1 ug/mL
  NF-kB SEAP reporter activity: 0.245
[1]; [4]
  NF-kB SEAP reporter activity: 0.286
[1]; [5]
  NF-kB SEAP reporter activity: 0.135
[1]; [6]
  NF-kB SEAP reporter activity: 0.132

## COc1cccc2c1C(=O)c1c(O)c3c(c(O)c1C2=O)CC(O)(C(=O)CO)CC3OC1CC(N)C(OC2CCCCO2)C(C)O1 (stereo unspecified)
[2]; [7]
  NF-kB SEAP reporter activity: 0.23
[2]; [8]
  NF-kB SEAP reporter activity: 0.21

## N#C/C(C(=O)c1ccc(Cl)cc1Cl)=C1\NC(=O)c2ccccc2N1 (library stock concentration (final ~1000-fold dilution): 10 mM)
[1]; agonist: LPS (TLR4) 0.1 ug/mL
  NF-kB SEAP reporter activity: 1.13
[1]; [4]
  NF-kB SEAP reporter activity: 0.982
[1]; [5]
  NF-kB SEAP reporter activity: 0.65
[1]; [6]
  NF-kB SEAP reporter activity: 0.693

## N#C/C(C(=O)c1ccc(Cl)cc1Cl)=C1\NC(=O)c2ccccc2N1
[2]; [7]
  NF-kB SEAP reporter activity: 0.86
[2]; [8]
  NF-kB SEAP reporter activity: 1.11

## COCCOc1nc(N)c2[nH]c(=O)n(Cc3ccc(C(=O)O)cc3)c2n1 (library stock concentration (final ~1000-fold dilution): 10 mM)
[1]; agonist: LPS (TLR4) 0.1 ug/mL
  NF-kB SEAP reporter activity: 7.55
[1]; [4]
  NF-kB SEAP reporter activity: 2.13
[1]; [5]
  NF-kB SEAP reporter activity: 1.46
[1]; [6]
  NF-kB SEAP reporter activity: 2.77

## COCCOc1nc(N)c2[nH]c(=O)n(Cc3ccc(C(=O)O)cc3)c2n1
[2]; [7]
  NF-kB SEAP reporter activity: 1.8
[2]; [8]
  NF-kB SEAP reporter activity: 2.54

## CN1CCN(Cc2ccc(NC(=O)Nc3ccc(Oc4cc(NC(=O)C5CC5)ncn4)cc3)cc2C(F)(F)F)CC1
[2]; [10]
  NF-kB SEAP reporter activity: 0.136
[2]; [9]
  NF-kB SEAP reporter activity: 0.267

## CN1CCN(Cc2ccc(NC(=O)Nc3ccc(Oc4cc(NC(=O)C5CC5)ncn4)cc3)cc2C(F)(F)F)CC1 (library stock concentration (final ~1000-fold dilution): 10 mM)
[3]; agonist: LPS (TLR4) 0.1 ug/mL
  NF-kB SEAP reporter activity: 0.463
[3]; [4]
  NF-kB SEAP reporter activity: 0.172
[3]; [5]
  NF-kB SEAP reporter activity: 0.0828
[3]; [6]
  NF-kB SEAP reporter activity: 0.146

## COCC1CC(c2ncc(-c3ccc4c(c3)COc3cc5c(ccc6[nH]c(C7CCC(C)N7C(=O)C(NC(=O)OC)C(C)C)nc65)cc3-4)[nH]2)N(C(=O)C(NC(=O)OC)c2ccccc2)C1 (stereo unspecified)
[2]; [7]
  NF-kB SEAP reporter activity: 0.98
[2]; [8]
  NF-kB SEAP reporter activity: 1.06

## COCC1CC(c2ncc(-c3ccc4c(c3)COc3cc5c(ccc6[nH]c(C7CCC(C)N7C(=O)C(NC(=O)OC)C(C)C)nc65)cc3-4)[nH]2)N(C(=O)C(NC(=O)OC)c2ccccc2)C1 (stereo unspecified) (library stock concentration (final ~1000-fold dilution): 10 mM)
[1]; agonist: LPS (TLR4) 0.1 ug/mL
  NF-kB SEAP reporter activity: 1.55
[1]; [4]
  NF-kB SEAP reporter activity: 0.986
[1]; [5]
  NF-kB SEAP reporter activity: 0.794
[1]; [6]
  NF-kB SEAP reporter activity: 0.591

## NC(=O)c1cccc2nc(-c3ccc(C4CCCN4)cc3F)[nH]c12 (stereo unspecified) (library stock concentration (final ~1000-fold dilution): 10 mM)
[1]; agonist: LPS (TLR4) 0.1 ug/mL
  NF-kB SEAP reporter activity: 0.553
[1]; [4]
  NF-kB SEAP reporter activity: 0.198
[1]; [5]
  NF-kB SEAP reporter activity: 1.03
[1]; [6]
  NF-kB SEAP reporter activity: 1

## NC(=O)c1cccc2nc(-c3ccc(C4CCCN4)cc3F)[nH]c12 (stereo unspecified)
[2]; [7]
  NF-kB SEAP reporter activity: 1.14
[2]; [8]
  NF-kB SEAP reporter activity: 0.748

## O=C(O)C1OC(Oc2cc3oc(-c4ccccc4)cc(=O)c3c(O)c2O)C(O)C(O)C1O (stereo unspecified)
[2]; [7]
  NF-kB SEAP reporter activity: 0.88
[2]; [8]
  NF-kB SEAP reporter activity: 1.02

## O=C(O)C1OC(Oc2cc3oc(-c4ccccc4)cc(=O)c3c(O)c2O)C(O)C(O)C1O (stereo unspecified) (library stock concentration (final ~1000-fold dilution): 10 mM)
[1]; agonist: LPS (TLR4) 0.1 ug/mL
  NF-kB SEAP reporter activity: 0.967
[1]; [4]
  NF-kB SEAP reporter activity: 1
[1]; [5]
  NF-kB SEAP reporter activity: 1.14
[1]; [6]
  NF-kB SEAP reporter activity: 0.815

## O=C(CCCN1CCC(O)(c2ccc(Cl)cc2)CC1)c1ccc(F)cc1
[2]; [7]
  NF-kB SEAP reporter activity: 1.6
[2]; [8]
  NF-kB SEAP reporter activity: 1.16

## O=C(CCCN1CCC(O)(c2ccc(Cl)cc2)CC1)c1ccc(F)cc1 (library stock concentration (final ~1000-fold dilution): 10 mM)
[1]; agonist: LPS (TLR4) 0.1 ug/mL
  NF-kB SEAP reporter activity: 1.23
[1]; [4]
  NF-kB SEAP reporter activity: 0.422
[1]; [5]
  NF-kB SEAP reporter activity: 0.872
[1]; [6]
  NF-kB SEAP reporter activity: 0.964

## CC(=O)N1c2ccc(-c3ccc(C(=O)O)cc3)cc2C(Nc2ccc(Cl)cc2)CC1C (stereo unspecified) (library stock concentration (final ~1000-fold dilution): 10 mM)
[1]; agonist: LPS (TLR4) 0.1 ug/mL
  NF-kB SEAP reporter activity: 4.2

## CC1Cc2c([nH]c3ccccc23)C(c2c(F)cc(/C=C/C(=O)O)cc2F)N1CC(C)(C)F (stereo unspecified)
[2]; [7]
  NF-kB SEAP reporter activity: 0.715
[2]; [8]
  NF-kB SEAP reporter activity: 0.876

## CC1Cc2c([nH]c3ccccc23)C(c2c(F)cc(/C=C/C(=O)O)cc2F)N1CC(C)(C)F (stereo unspecified) (library stock concentration (final ~1000-fold dilution): 10 mM)
[1]; agonist: LPS (TLR4) 0.1 ug/mL
  NF-kB SEAP reporter activity: 0.59
[1]; [4]
  NF-kB SEAP reporter activity: 0.648
[1]; [5]
  NF-kB SEAP reporter activity: 0.368
[1]; [6]
  NF-kB SEAP reporter activity: 0.403

## C#Cc1cccc(Nc2ncnc3cc(OCCOC)c(OCCO)cc23)c1.Cl (library stock concentration (final ~1000-fold dilution): 10 mM)
[1]; agonist: LPS (TLR4) 0.1 ug/mL
  NF-kB SEAP reporter activity: 4.71
[1]; [4]
  NF-kB SEAP reporter activity: 1.41
[1]; [5]
  NF-kB SEAP reporter activity: 1.02
[1]; [6]
  NF-kB SEAP reporter activity: 1.87

## C#Cc1cccc(Nc2ncnc3cc(OCCOC)c(OCCO)cc23)c1.Cl
[2]; [7]
  NF-kB SEAP reporter activity: 1.81
[2]; [8]
  NF-kB SEAP reporter activity: 2.51

## COc1cc(C=CC(=O)CC(=O)C=Cc2ccc(O)c(OC)c2)ccc1O (library stock concentration (final ~1000-fold dilution): 100 mM)
[1]; agonist: LPS (TLR4) 0.1 ug/mL
  NF-kB SEAP reporter activity: 0.303
[1]; [4]
  NF-kB SEAP reporter activity: 0.197
[1]; [5]
  NF-kB SEAP reporter activity: 0.13
[1]; [6]
  NF-kB SEAP reporter activity: 0.242

## COc1cc(C=CC(=O)CC(=O)C=Cc2ccc(O)c(OC)c2)ccc1O
[2]; library stock concentration (final ~1000-fold dilution): 100 mM, cytotoxicity flag (confluency mask): not cytotoxic, agonist: Imiquimod (TLR7) […]
  NF-kB SEAP reporter activity: 0.155
[2]; library stock concentration (final ~1000-fold dilution): 100 mM, cytotoxicity flag (confluency mask): not cytotoxic, agonist: MPLA (TLR4) […]
  NF-kB SEAP reporter activity: 0.257

## CCC(C)(C)C(=O)OC1CC(C)C=C2C=CC(C)C(CCC3CC(O)CC(=O)O3)C21 (stereo unspecified)
[2]; [10]
  NF-kB SEAP reporter activity: 2.53
[2]; [9]
  NF-kB SEAP reporter activity: 1.95

## CCC(C)(C)C(=O)OC1CC(C)C=C2C=CC(C)C(CCC3CC(O)CC(=O)O3)C21 (stereo unspecified) (library stock concentration (final ~1000-fold dilution): 10 mM)
[3]; agonist: LPS (TLR4) 0.1 ug/mL
  NF-kB SEAP reporter activity: 2.35
[3]; [4]
  NF-kB SEAP reporter activity: 2.44
[3]; [5]
  NF-kB SEAP reporter activity: 2.12
[3]; [6]
  NF-kB SEAP reporter activity: 3.35
